± gives the standard deviation of the averaged measurements. Restriction of a single-cycle SIVsab GFP reporter by TRIM5α v1-loop variants in CRFK cells. Human variants: read share among cells still uninfected after two challenges over input, higher = gained restriction. Rhesus variants: share among infected cells over input, higher = lost restriction. Reporter dose not given per row. No active / inactive call per row; the paper calls a change when both replicates lie above its controls (mean + 2 SD of stop or wild-type variants, or the top frameshift score). Residues outside the varied loop are taken from Swiss-Prot. The paper reads the human single-substitution scores as noise; they and the rhesus combinations repeat poorly (rank correlation 0.3 to 0.4), indel scores repeat only for the top variants, rhesus substitutions well (0.9).

The data set has as its system SIVsab (simian immunodeficiency virus of sabaeus monkeys), single-cycle GFP reporter, in CRFK cells. The data set is described as follows: enrichment among uninfected cells over input (fold); higher = stronger restriction. As to conditions: library: human / rhesus combinations. On the procedure:
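Pools of CRFK cells expressing variants of the TRIM5α v1 loop were challenged with the single-cycle reporter, sorted by GFP and sequenced; mean of two replicates.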
Turning to “MASGILVNVKEEVTCPICLELLTQPLSLDCGHSFCQACLTANHKKSMLDKGESSCPVCRISYQPENIRPNRHVANIVEKLREVKLSPEGQKVDHCARHGEKLLLFCQEDGKVICWLCERSQEHRGHHTFLTEEVAREYQVKLQAALEMLRQKQQEAEELEADIREEKASWKTQIQYDKTNVLADFEQLRDILDWEESNELQNLEKEEEDILKSLTNSETEMVQQTQSLRELISDLEHRLQGSVMELLQGVDGVIKRTENVTLKKPETFPKNQRRVFRAPDLKGMLEVFRELTDVRRYWVDVTVAPNNISCAVISEDKRQVSSPKPQIIYGARGTLFTFQTLVNFNYCTGILGSQSITSGKHYWEVDVSKKTAWILGVCAGFQPDAMCNIEKNENYQPKYGYWVIGLEEGVKCSAFQDSSFHTPSVPFIVPLSVIICPDRVGVFLDYEACTVSFFNITNHGFLIYKFSHCSFSQPVFPYLNPRKCGVPMTLCSPSS [human TRIM5α, 330-340 = GARGTLFTFQTLV]”, the enrichment came to 0.0929 ± 0.043.

With “MASGILVNVKEEVTCPICLELLTQPLSLDCGHSFCQACLTANHKKSMLDKGESSCPVCRISYQPENIRPNRHVANIVEKLREVKLSPEGQKVDHCARHGEKLLLFCQEDGKVICWLCERSQEHRGHHTFLTEEVAREYQVKLQAALEMLRQKQQEAEELEADIREEKASWKTQIQYDKTNVLADFEQLRDILDWEESNELQNLEKEEEDILKSLTNSETEMVQQTQSLRELISDLEHRLQGSVMELLQGVDGVIKRTENVTLKKPETFPKNQRRVFRAPDLKGMLEVFRELTDVRRYWVDVTVAPNNISCAVISEDKRQVSSPKPQIIYGARGTLYPTLVNFNYCTGILGSQSITSGKHYWEVDVSKKTAWILGVCAGFQPDAMCNIEKNENYQPKYGYWVIGLEEGVKCSAFQDSSFHTPSVPFIVPLSVIICPDRVGVFLDYEACTVSFFNITNHGFLIYKFSHCSFSQPVFPYLNPRKCGVPMTLCSPSS [human TRIM5α, 330-340 = GARGTLYPTLV]”, the enrichment is 0.00614 ± 0.0034.

“MASGILVNVKEEVTCPICLELLTQPLSLDCGHSFCQACLTANHKKSMLDKGESSCPVCRISYQPENIRPNRHVANIVEKLREVKLSPEGQKVDHCARHGEKLLLFCQEDGKVICWLCERSQEHRGHHTFLTEEVAREYQVKLQAALEMLRQKQQEAEELEADIREEKASWKTQIQYDKTNVLADFEQLRDILDWEESNELQNLEKEEEDILKSLTNSETEMVQQTQSLRELISDLEHRLQGSVMELLQGVDGVIKRTENVTLKKPETFPKNQRRVFRAPDLKGMLEVFRELTDVRRYWVDVTVAPNNISCAVISEDKRQVSSPKPQIIYGARGTLYTFPSFTNFNYCTGILGSQSITSGKHYWEVDVSKKTAWILGVCAGFQPDAMCNIEKNENYQPKYGYWVIGLEEGVKCSAFQDSSFHTPSVPFIVPLSVIICPDRVGVFLDYEACTVSFFNITNHGFLIYKFSHCSFSQPVFPYLNPRKCGVPMTLCSPSS [human TRIM5α, 330-340 = GARGTLYTFPSFT]”: the enrichment came to 0.0202 ± 0.02.

As for “MASGILVNVKEEVTCPICLELLTQPLSLDCGHSFCQACLTANHKKSMLDKGESSCPVCRISYQPENIRPNRHVANIVEKLREVKLSPEGQKVDHCARHGEKLLLFCQEDGKVICWLCERSQEHRGHHTFLTEEVAREYQVKLQAALEMLRQKQQEAEELEADIREEKASWKTQIQYDKTNVLADFEQLRDILDWEESNELQNLEKEEEDILKSLTNSETEMVQQTQSLRELISDLEHRLQGSVMELLQGVDGVIKRTENVTLKKPETFPKNQRRVFRAPDLKGMLEVFRELTDVRRYWVDVTVAPNNISCAVISEDKRQVSSPKPQIIYGARGTLYTFPSFVNFNYCTGILGSQSITSGKHYWEVDVSKKTAWILGVCAGFQPDAMCNIEKNENYQPKYGYWVIGLEEGVKCSAFQDSSFHTPSVPFIVPLSVIICPDRVGVFLDYEACTVSFFNITNHGFLIYKFSHCSFSQPVFPYLNPRKCGVPMTLCSPSS [human TRIM5α, 330-340 = GARGTLYTFPSFV]”, the enrichment stood at 0.201 ± 0.083.

With “MASGILVNVKEEVTCPICLELLTQPLSLDCGHSFCQACLTANHKKSMLDKGESSCPVCRISYQPENIRPNRHVANIVEKLREVKLSPEGQKVDHCARHGEKLLLFCQEDGKVICWLCERSQEHRGHHTFLTEEVAREYQVKLQAALEMLRQKQQEAEELEADIREEKASWKTQIQYDKTNVLADFEQLRDILDWEESNELQNLEKEEEDILKSLTNSETEMVQQTQSLRELISDLEHRLQGSVMELLQGVDGVIKRTENVTLKKPETFPKNQRRVFRAPDLKGMLEVFRELTDVRRYWVDVTVAPNNISCAVISEDKRQVSSPKPQIIYGARGTLYTFPSLTNFNYCTGILGSQSITSGKHYWEVDVSKKTAWILGVCAGFQPDAMCNIEKNENYQPKYGYWVIGLEEGVKCSAFQDSSFHTPSVPFIVPLSVIICPDRVGVFLDYEACTVSFFNITNHGFLIYKFSHCSFSQPVFPYLNPRKCGVPMTLCSPSS [human TRIM5α, 330-340 = GARGTLYTFPSLT]”, the enrichment was 0.0745 ± 0.027.

In the case of “MASGILVNVKEEVTCPICLELLTQPLSLDCGHSFCQACLTANHKKSMLDKGESSCPVCRISYQPENIRPNRHVANIVEKLREVKLSPEGQKVDHCARHGEKLLLFCQEDGKVICWLCERSQEHRGHHTFLTEEVAREYQVKLQAALEMLRQKQQEAEELEADIREEKASWKTQIQYDKTNVLADFEQLRDILDWEESNELQNLEKEEEDILKSLTNSETEMVQQTQSLRELISDLEHRLQGSVMELLQGVDGVIKRTENVTLKKPETFPKNQRRVFRAPDLKGMLEVFRELTDVRRYWVDVTVAPNNISCAVISEDKRQVSSPKPQIIYGARGTLYTFPSLVNFNYCTGILGSQSITSGKHYWEVDVSKKTAWILGVCAGFQPDAMCNIEKNENYQPKYGYWVIGLEEGVKCSAFQDSSFHTPSVPFIVPLSVIICPDRVGVFLDYEACTVSFFNITNHGFLIYKFSHCSFSQPVFPYLNPRKCGVPMTLCSPSS [human TRIM5α, 330-340 = GARGTLYTFPSLV]”, the enrichment is 0.174 ± 0.1.

As for “MASGILVNVKEEVTCPICLELLTQPLSLDCGHSFCQACLTANHKKSMLDKGESSCPVCRISYQPENIRPNRHVANIVEKLREVKLSPEGQKVDHCARHGEKLLLFCQEDGKVICWLCERSQEHRGHHTFLTEEVAREYQVKLQAALEMLRQKQQEAEELEADIREEKASWKTQIQYDKTNVLADFEQLRDILDWEESNELQNLEKEEEDILKSLTNSETEMVQQTQSLRELISDLEHRLQGSVMELLQGVDGVIKRTENVTLKKPETFPKNQRRVFRAPDLKGMLEVFRELTDVRRYWVDVTVAPNNISCAVISEDKRQVSSPKPQIIYGARGTLYTFPTFTNFNYCTGILGSQSITSGKHYWEVDVSKKTAWILGVCAGFQPDAMCNIEKNENYQPKYGYWVIGLEEGVKCSAFQDSSFHTPSVPFIVPLSVIICPDRVGVFLDYEACTVSFFNITNHGFLIYKFSHCSFSQPVFPYLNPRKCGVPMTLCSPSS [human TRIM5α, 330-340 = GARGTLYTFPTFT]”, the enrichment was found to be 0.701 ± 0.99.

With “MASGILVNVKEEVTCPICLELLTQPLSLDCGHSFCQACLTANHKKSMLDKGESSCPVCRISYQPENIRPNRHVANIVEKLREVKLSPEGQKVDHCARHGEKLLLFCQEDGKVICWLCERSQEHRGHHTFLTEEVAREYQVKLQAALEMLRQKQQEAEELEADIREEKASWKTQIQYDKTNVLADFEQLRDILDWEESNELQNLEKEEEDILKSLTNSETEMVQQTQSLRELISDLEHRLQGSVMELLQGVDGVIKRTENVTLKKPETFPKNQRRVFRAPDLKGMLEVFRELTDVRRYWVDVTVAPNNISCAVISEDKRQVSSPKPQIIYGARGTLYTFPTFVNFNYCTGILGSQSITSGKHYWEVDVSKKTAWILGVCAGFQPDAMCNIEKNENYQPKYGYWVIGLEEGVKCSAFQDSSFHTPSVPFIVPLSVIICPDRVGVFLDYEACTVSFFNITNHGFLIYKFSHCSFSQPVFPYLNPRKCGVPMTLCSPSS [human TRIM5α, 330-340 = GARGTLYTFPTFV]”, the enrichment was 0.198 ± 0.28.

In the case of “MASGILVNVKEEVTCPICLELLTQPLSLDCGHSFCQACLTANHKKSMLDKGESSCPVCRISYQPENIRPNRHVANIVEKLREVKLSPEGQKVDHCARHGEKLLLFCQEDGKVICWLCERSQEHRGHHTFLTEEVAREYQVKLQAALEMLRQKQQEAEELEADIREEKASWKTQIQYDKTNVLADFEQLRDILDWEESNELQNLEKEEEDILKSLTNSETEMVQQTQSLRELISDLEHRLQGSVMELLQGVDGVIKRTENVTLKKPETFPKNQRRVFRAPDLKGMLEVFRELTDVRRYWVDVTVAPNNISCAVISEDKRQVSSPKPQIIYGARGTLYTFPTLTNFNYCTGILGSQSITSGKHYWEVDVSKKTAWILGVCAGFQPDAMCNIEKNENYQPKYGYWVIGLEEGVKCSAFQDSSFHTPSVPFIVPLSVIICPDRVGVFLDYEACTVSFFNITNHGFLIYKFSHCSFSQPVFPYLNPRKCGVPMTLCSPSS [human TRIM5α, 330-340 = GARGTLYTFPTLT]”, the enrichment stood at 0.0612 ± 0.085.

For the sequence “MASGILVNVKEEVTCPICLELLTQPLSLDCGHSFCQACLTANHKKSMLDKGESSCPVCRISYQPENIRPNRHVANIVEKLREVKLSPEGQKVDHCARHGEKLLLFCQEDGKVICWLCERSQEHRGHHTFLTEEVAREYQVKLQAALEMLRQKQQEAEELEADIREEKASWKTQIQYDKTNVLADFEQLRDILDWEESNELQNLEKEEEDILKSLTNSETEMVQQTQSLRELISDLEHRLQGSVMELLQGVDGVIKRTENVTLKKPETFPKNQRRVFRAPDLKGMLEVFRELTDVRRYWVDVTVAPNNISCAVISEDKRQVSSPKPQIIYGARGTLYTFPTLVNFNYCTGILGSQSITSGKHYWEVDVSKKTAWILGVCAGFQPDAMCNIEKNENYQPKYGYWVIGLEEGVKCSAFQDSSFHTPSVPFIVPLSVIICPDRVGVFLDYEACTVSFFNITNHGFLIYKFSHCSFSQPVFPYLNPRKCGVPMTLCSPSS [human TRIM5α, 330-340 = GARGTLYTFPTLV]”, the enrichment came out at 0.556 ± 0.64.

On to “MASGILVNVKEEVTCPICLELLTQPLSLDCGHSFCQACLTANHKKSMLDKGESSCPVCRISYQPENIRPNRHVANIVEKLREVKLSPEGQKVDHCARHGEKLLLFCQEDGKVICWLCERSQEHRGHHTFLTEEVAREYQVKLQAALEMLRQKQQEAEELEADIREEKASWKTQIQYDKTNVLADFEQLRDILDWEESNELQNLEKEEEDILKSLTNSETEMVQQTQSLRELISDLEHRLQGSVMELLQGVDGVIKRTENVTLKKPETFPKNQRRVFRAPDLKGMLEVFRELTDVRRYWVDVTVAPNNISCAVISEDKRQVSSPKPQIIYGARGTLYTFQSFTNFNYCTGILGSQSITSGKHYWEVDVSKKTAWILGVCAGFQPDAMCNIEKNENYQPKYGYWVIGLEEGVKCSAFQDSSFHTPSVPFIVPLSVIICPDRVGVFLDYEACTVSFFNITNHGFLIYKFSHCSFSQPVFPYLNPRKCGVPMTLCSPSS [human TRIM5α, 330-340 = GARGTLYTFQSFT]”, for which the enrichment amounted to 0.138 ± 0.026.

Regarding “MASGILVNVKEEVTCPICLELLTQPLSLDCGHSFCQACLTANHKKSMLDKGESSCPVCRISYQPENIRPNRHVANIVEKLREVKLSPEGQKVDHCARHGEKLLLFCQEDGKVICWLCERSQEHRGHHTFLTEEVAREYQVKLQAALEMLRQKQQEAEELEADIREEKASWKTQIQYDKTNVLADFEQLRDILDWEESNELQNLEKEEEDILKSLTNSETEMVQQTQSLRELISDLEHRLQGSVMELLQGVDGVIKRTENVTLKKPETFPKNQRRVFRAPDLKGMLEVFRELTDVRRYWVDVTVAPNNISCAVISEDKRQVSSPKPQIIYGARGTLYTFQSFVNFNYCTGILGSQSITSGKHYWEVDVSKKTAWILGVCAGFQPDAMCNIEKNENYQPKYGYWVIGLEEGVKCSAFQDSSFHTPSVPFIVPLSVIICPDRVGVFLDYEACTVSFFNITNHGFLIYKFSHCSFSQPVFPYLNPRKCGVPMTLCSPSS [human TRIM5α, 330-340 = GARGTLYTFQSFV]”, the enrichment came to 0.154 ± 0.014.
